PubChem BioAssay AID686970 (National Center for Advancing Translational Sciences (NCATS), 2013)
In all, about 360,000 compounds went through this assay and about 6,000 (1.7%) were called active. This list was built around the results that the source calls inconclusive (neither active nor inactive); the mix of calls is not that of the screen. Calls come from the whole dose curve; as a rule, active = well fitted cell-killing curve with a large enough effect; inconclusive = small, poorly fitted or top-dose-only effect, or effect the other way; inactive = flat fitted curve, though single readings scatter. No potency is given beside an inconclusive call; the fits are too rough.

Experiment: qHTS for induction of synthetic lethality in tumor cells producing 2HG: qHTS for the HT-1080-NT fibrosarcoma cell line;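 note: NT is the 2HG producing partner of a matched IDH1 knockdown line; nearly all actives have a fitted effect of over 55% in size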;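 for activity, negative = less viability: 0% = DMSO-treated cells and -100% = media-only wells without cells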
Settings: HT-1080-NT fibrosarcoma viability, CellTiter-Glo ATP luminescence, 48 h; activity, negative = less viability: at 46.1 µM (top of the series) unless noted
Procedure, shortened: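 Luminescent CellTiter-Glo readout after 48 hours of compound exposure at 37 degrees C defined viability of HT-1080-NT cells. Activity was normalized to DMSO wells and cell-free media wells; concentration-response curves were fitted and assigned curve classes.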
Potency is the fitted concentration of half-maximal effect; tags give direction and shape of the fitted curve.

Compound | Potency | activity, negative = less viability
Cc1ccc(Nc2nc(Cl)c(C=O)s2)cc1Cl | active: 18.4 µM | 
Cc1cccc(C)c1NC(=O)CNC(=O)c1ccc(NS(=O)(=O)c2ccc3[nH]c(=O)[nH]c3c2)cc1 | inactive | 
O=C(Nc1ccc2c(c1)OCCO2)c1cc2ccccc2o1 | inactive | 
Cc1cccc(Nc2nc(N)c([N+](=O)[O-])c(N3CCCC(C)C3)n2)c1 (stereo not given) | inconclusive [cytotoxic, single point] | 
Fc1cccc(NC(=S)NCc2ccccc2Cl)c1 | inconclusive [cytotoxic, single point] | 
O=C(Nc1ccc(OC(F)(F)F)cc1)Nc1cccc([N+](=O)[O-])c1 | inconclusive [cytotoxic, single point] | 
O=[N+]([O-])c1cccc(COc2cccc(CN3CCCC3)c2)c1 | inactive | 
CC(C)c1ccc(NC(=O)CN2C(=O)NC(Cc3c[nH]c4ccccc34)C2=O)cc1 (stereo not given) | inconclusive [cytotoxic, single point] | 
CC(C)c1cccc(-c2csc(C(O)c3ccc(F)cc3)n2)c1 (stereo not given) |  | inconclusive: -57.2%
Cc1cccn2c(=O)c3cc(C(=O)NCC4CCCO4)c(=N)n(Cc4cccnc4)c3nc12 (stereo not given) | inactive | 
CCN(CC)c1cc(C)c2cc(NC(=O)CNC(C)=O)ccc2n1 | inactive | 
CCc1ccc(/C=C/C(=O)c2c(C)cc(C)[nH]c2=O)cc1 | active: 14.6 µM | 
Cc1cccc(NC(=O)CCSc2ccccn2)c1 |  | inconclusive: 34.2%
C=C1C(=O)O[C@H]2[C@H]1[C@@H](O)CC(=C)[C@@H]1CC(=O)[C@@H](C)[C@H]21 | inconclusive [cytotoxic, single point] | 
C[C@@H]1NC(=O)N[C@@H]1CCCCCC(=O)O | inconclusive [cytotoxic, partial curve, poor fit] | 
COc1ccc(N2CCN(C(=O)c3cccc(NC(=O)c4ccco4)c3)CC2)cc1 | inactive | 
O=C(O)c1ccc(N/N=C/c2cn(-c3ccccc3)nc2-c2cccs2)cc1 | inconclusive [cytotoxic, partial curve] | 
CC1CCCC(C)N1C(=O)COC(=O)c1cccs1 (stereo not given) | inactive | 
CCOc1ccc(N(CC(=O)Nc2ccccc2Cl)S(C)(=O)=O)cc1 | inconclusive [cytotoxic, single point] | 
CC(=O)Oc1ccc(C(=O)Nc2cccc(C(=O)NC(C)(C)C)c2)cc1 | inconclusive [cytotoxic, partial curve] | 
CCOC(=O)C1=CCN(S(=O)(=O)c2ccccc2Br)C1c1ccc(Cl)c(Cl)c1 (stereo not given) | inconclusive [cytotoxic, single point] | 
Cc1cc(NC(=O)c2cc(C(C)C)on2)nn1Cc1ccc(Cl)cc1 | inactive | 
Cc1ccc(CNS(=O)(=O)c2ccc(-n3cccn3)cc2)cc1 | inactive | 
COC(Cn1c(-c2cccc(S(=O)(=O)N(C)C)c2)n[nH]c1=S)OC | inactive | 
Cn1ccc2c(-c3ccc(C(F)(F)F)cc3)cc3c(c21)C1CCC3O1 (stereo not given) | inconclusive [cytotoxic, single point] | 

Compound | Potency | activity, negative = less viability
Fc1ccc(Oc2nccc(-c3ccc(Cl)cc3)n2)cc1 | inconclusive [rising, full curve] | 
Cc1ccc(/C(O)=C/C(=O)C(=O)NC23CC4CC(CC(C4)C2)C3)cc1 | inactive | 
Cc1noc(C)c1COc1ccc(C(=O)NCCc2ccccn2)cc1 | inactive | 
CCCn1c(SCc2ccon2)nc2ccccc2c1=O | inactive | 
COc1ccc2[nH]c3c4c(ccc3c2c1)C(=O)C=CC4=O | active: 13 µM | 
CC1C(O)=C(c2nc3ccccc3[nH]2)C(=N)N1c1ccccc1 (stereo not given) | inconclusive [cytotoxic, single point] | 
COc1cccc(NC(=S)N(CCc2c(C)[nH]c3ccccc23)Cc2cccs2)c1 | inactive | 
CCCCCC1CCC(c2ccc(C(N)=O)cc2)CC1 (stereo not given) | inactive | 
COCCCn1c(SCc2cccc(OC)c2)nc2cc(OC)c(OC)cc2c1=N | inconclusive [cytotoxic, single point] | 
CCCS(=O)(=O)N1CCCC(C(=O)Oc2ccc(Cl)cc2)C1 (stereo not given) | inactive | 
CCc1ccc(-c2cc(C)no2)cc1S(=O)(=O)N1CCOc2ccccc21 | inconclusive [cytotoxic, single point] | 
COc1ccc(C(O)c2nc(-c3ccc(N(C)C)cc3)cs2)cc1 (stereo not given) | inconclusive [cytotoxic, single point] | 
O=C(Nc1ccc(OCC(F)(F)C(F)F)c(C(F)(F)F)c1)c1ccccc1O | active: 16.4 µM | 
CCCC(=O)Nc1nc(-c2ccc3c(c2)CCN3S(C)(=O)=O)cs1 | inactive | 
Cc1c(C(=O)NCCSCc2ccc(Cl)cc2Cl)cccc1[N+](=O)[O-] | inconclusive [cytotoxic, single point] | 
NC(CSC(c1ccccc1)(c1ccccc1)c1ccc2c(c1)OCO2)C(=O)O (stereo not given) | active: 11.6 µM | 
CCN(CCN(C)C)C(=O)c1ccc2c(c1NCCO)C(=O)c1ccccc1C2=O | inconclusive [cytotoxic, partial curve] | 
O=C(Cc1nc(=O)c2ccccc2s1)Nc1ccccc1 | inconclusive [cytotoxic, single point] | 
CC1CCC(C(=O)NC(C(=O)N2CCc3ccccc3C2)C(C)C)CC1 (stereo not given) | inactive | 
Cc1[nH]c2c(C)cccc2c1CN1CCC(CO)(Cc2ccccc2)CC1 | inconclusive [cytotoxic, single point] | 
Cc1noc(C)c1CSCC(=O)Nc1cc(S(=O)(=O)N2CCCCC2)ccc1OC(C)C | inactive | 
CC(=O)Oc1ccc(Cn2c(C)c(C(=O)NCc3cccc(C(F)(F)F)c3)sc2=O)cc1 | inconclusive [cytotoxic, single point] | 
O=C(CSc1ccc(-c2cccnc2)nn1)Nc1ccccc1 | inactive | 
CCCS(=O)(=O)NC(=O)C1(C)CCN(C(=O)c2cccc(C(F)(F)F)c2)C1 (stereo not given) | inactive | 
COc1cccc(C(=O)NNC(=O)C(=O)Nc2ccc(C)c(Cl)c2)c1 | inconclusive [cytotoxic, single point] | 
